Measured values from PubChem BioAssay AID686978 (National Center for Advancing Translational Sciences (NCATS), 2013).
The whole screen tested about 420,000 compounds, of which about 64,000 (15%) were called active. Inconclusive means that the source gave no clear call. Such entries were picked first, then a sample of the others. Calls follow the shape of the dose curve; as a rule, active = well fitted inhibition curve with a large enough effect; inconclusive = small, poorly fitted or top-dose-only effect; inactive = flat fitted curve, though single readings scatter. No potency is given beside an inconclusive call; the fits are too rough.

assay: qHTS for Inhibitors of human tyrosyl-DNA phosphodiesterase 1 (TDP1): qHTS in cells in absence of CPT; conditions: DT40 Tdp1-/- hTDP1 cells, no CPT, ATP luminescence, 48 h; series mostly up to 46.2 µM; also: nearly all actives have a fitted effect of over 55% in size
Procedure, shortened: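 Luminescent ATP content (CellTiter-Glo) served as the growth readout. Knockout chicken DT40 cells expressing human TDP1 were exposed to compounds without camptothecin for a minimum 48 hr at 37 °C.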
Potency is read from the fitted curve at half-maximal effect; tags tell the direction and shape of the fitted curve.

For `Cc1cc2c(cc(C(=O)OC(C(=O)NCc3ccco3)C(C)C)n2C)o1` (configuration not stated), which Potency is on record?
Its Potency is active: 18.4 µM.

With `CC1CN(C(=O)Cn2c(=O)oc3ccccc32)CC(C)O1` (configuration not stated) as the compound, how does the Potency read?
Its Potency is “inactive”.

For `C=CCN(C(=O)c1csnn1)C(C(=O)NCc1ccccc1)c1ccccc1F` (configuration not stated), which Potency is on record?
Its Potency is inconclusive [inhibitor, partial curve].

Which Potency does the source give for `C/C(=N\NC(=S)NC1CCCCC1)c1c(F)cccc1F` here?
Its Potency is inconclusive [inhibitor, single point].

For `CCOc1ccc(/C=C/C(=O)c2c(O)cc(C)oc2=O)cc1`, which Potency is on record?
Its Potency is inconclusive [inhibitor, single point].

For `O=C(NCC(c1ccco1)S(=O)(=O)c1cccs1)c1c(F)cccc1F` (configuration not stated), which Potency is on record?
The Potency was inconclusive [inhibitor, single point].

Which Potency does the source give for `Cc1ccc(NC(=O)CSCC(=O)N2CCCc3ccccc32)cc1` here?
The Potency was “inactive”.

With `CCN(CC)C(=O)c1sc2c(c1C)c(=O)n(Cc1ccccc1)c(=O)n2Cc1c(C)cc(C)cc1C` as the compound, how does the Potency read?
The Potency was active: 20.6 µM.

Which Potency does the source give for `CC(C)(C)OC(=O)N[C@H]1C=C[C@@H](OC(=O)CC(=O)OCC(F)(F)F)C1` here?
The Potency was “inactive”.

For `COc1ccc(NC(=O)Nc2cccc3c2O[C@H](CN(C)S(C)(=O)=O)[C@@H](C)CN([C@H](C)CO)C3=O)cc1`, which Potency is on record?
The Potency was “inactive”.

Which Potency does the source give for `CC(C)c1nc(SCC(=O)Nc2ccc(N(C)C)cc2)c2ccccc2n1` here?
The Potency was inconclusive [inhibitor, partial curve].

Which Potency does the source give for `O=C(CCC1CCCCC1)Nc1nnc(C(F)(F)F)s1` here?
Its Potency is inconclusive [inhibitor, single point].

Which Potency does the source give for `COc1cc(OC)c(N(C)C(=O)c2cc3c(s2)-c2ccccc2S(=O)(=O)C3)cc1Cl` here?
The Potency was inconclusive [inhibitor, single point].

With `FC(F)Sc1ccc(NC(=S)NC2CCCCC2)cc1` as the compound, how does the Potency read?
Its Potency is “inactive”.

For `Cc1nn(-c2ccc(N3CCCC3)nn2)c(C)c1CCC(=O)N1CCN(c2ccc(F)cc2)CC1`, which Potency is on record?
The Potency was inconclusive [inhibitor, single point].

Which Potency does the source give for `CCCCN1C(=O)C(CC(=O)NC2CCCC2)CC(C(=O)N(C)C)=C1C` (configuration not stated) here?
Its Potency is “inactive”.

For `CCOC(=O)c1ccc(NC(=O)c2c(NCc3ccc(OC)c(OC)c3OC)sc3c2CCC(C)C3)cc1` (configuration not stated), which Potency is on record?
Its Potency is active: 25.9 µM.

With `O=C(NCC(c1cccnc1)N1CCc2ccccc21)c1cccc(F)c1` (configuration not stated) as the compound, how does the Potency read?
Its Potency is active: 20.6 µM.

For `CCCCCCCCCC[n+]1cccc2cc(Br)ccc21`, which Potency is on record?
The Potency was active: 1.26 µM.

Which Potency does the source give for `CCOC(=O)c1cc(-c2ccc(F)cc2)nc2c1c(=O)[nH]c(=O)n2Cc1ccccc1` here?
The Potency was inconclusive [inhibitor, full curve, poor fit].

For `CCN(CC(=O)NC(C)C)C(=O)c1ccc(S(=O)(=O)N(C)c2ccccc2OC)cc1`, which Potency is on record?
Its Potency is active: 14.6 µM.

For `Cc1cccc(NC(=O)Cn2c(=O)n(CC3CCC(C(=O)NCCc4ccccc4)CC3)c(=O)c3ccccc32)c1C` (configuration not stated), which Potency is on record?
Its Potency is “inactive”.

With `COC(=O)C1=C(C)NC(C)=C(C(=O)OC)C1C(=O)OCCN1C(=O)c2ccccc2C1=O` as the compound, how does the Potency read?
Its Potency is “inactive”.

Which Potency does the source give for `CC1(c2cccc(Br)c2)NC(=O)N(CC(=O)c2ccc3c(c2)OCCO3)C1=O` (configuration not stated) here?
Its Potency is inconclusive [inhibitor, single point].

With `CC1(C)CC2C1CCC1(C)OC2(C)CCC1O` (configuration not stated) as the compound, how does the Potency read?
The Potency was “inactive”.

With `CN(C)S(=O)(=O)c1cccc(NC(=O)COc2ccccc2C(=O)NCc2ccccc2)c1` as the compound, how does the Potency read?
The Potency was inconclusive [inhibitor, single point].

With `O=C(c1cc(C(=O)N2CCN(c3ccc(F)cc3)CC2)cc([N+](=O)[O-])c1)N1CCN(c2ccc(F)cc2)CC1` as the compound, how does the Potency read?
Its Potency is active: 4.61 µM.

Which Potency does the source give for `COC(=O)c1cc(S(=O)(=O)N2CCC(c3cc(OC)ccc3OC)C2)c[nH]1` (configuration not stated) here?
Its Potency is inconclusive [inhibitor, partial curve].

For `Cc1cccc(N2CCN(Cc3oc(CO)cc(=O)c3O)CC2)c1C`, which Potency is on record?
Its Potency is inconclusive [inhibitor, single point].

Which Potency does the source give for `COCCNC(=O)c1cc(-c2ccccc2)n(CC2CC(c3ccc(OC)cc3)=NO2)n1` (configuration not stated) here?
The Potency was inconclusive [inhibitor, single point].

Which Potency does the source give for `Cc1ccc(NS(=O)(=O)c2ccc3[nH]c4c(c3c2)CCCCCC4)cc1C` here?
The Potency was active: 16.4 µM.

Which Potency does the source give for `CCN(CC)S(=O)(=O)c1ccc(C(C)NCC(=O)Nc2ccccc2C(=O)NC2CC2)cc1` (configuration not stated) here?
The Potency was inconclusive [inhibitor, single point].

Which Potency does the source give for `COc1ccc2c(c1)CCc1c-2n[nH]c1C(=O)NCCC(C)C` here?
The Potency was inconclusive [inhibitor, single point].

Which Potency does the source give for `CCCN(CCC)C(=S)NC1CC2C=CC1C2` (configuration not stated) here?
The Potency was inconclusive [inhibitor, single point].

With `Cc1ccc(Cn2c(=O)c3ccccc3n3c(CCC(=O)O)nnc23)cc1` as the compound, how does the Potency read?
Its Potency is “inactive”.

Which Potency does the source give for `CCc1ccc(CN(C)Cc2nc(-c3cccc(Cl)c3)no2)nc1` here?
Its Potency is inconclusive [inhibitor, single point].

With `COc1ccc(/C=N/NC(=O)c2ccn[nH]2)cc1COc1ccc([N+](=O)[O-])c(C)c1` as the compound, how does the Potency read?
The Potency was inconclusive [inhibitor, single point].

Which Potency does the source give for `COc1cccc(NC(=S)NCCc2ccccn2)c1` here?
Its Potency is “inactive”.

With `CCN(c1ccccc1)S(=O)(=O)c1cc(C(=O)NCC(c2ccco2)N2CCCCC2)ccc1C` (configuration not stated) as the compound, how does the Potency read?
The Potency was inconclusive [inhibitor, single point].

For `CCOc1ccc(/C=N/Nc2cc(N3CCOCC3)nc(C)n2)c(O)c1`, which Potency is on record?
The Potency was inconclusive [inhibitor, single point].

For `CN1CCN(C(=O)C2=C[C@H](c3csc4ccccc34)C[C@H](OCCCCO)O2)CC1`, which Potency is on record?
The Potency was “inactive”.

For `Cc1ccc(S(=O)(=O)N(Cc2cccnc2)Cc2cc3ccccc3[nH]c2=O)cc1`, which Potency is on record?
The Potency was inconclusive [inhibitor, single point].

For `CC(C)(C)c1ccc2c(S(=O)(=O)O)c(C(C)(C)C)ccc2c1`, which Potency is on record?
The Potency was inconclusive [inhibitor, single point].

For `CCN(CC)c1ncnc2c1ncn2[C@H]1CN(Cc2ccc3c(c2)OCO3)C[C@@H](CO)O1`, which Potency is on record?
The Potency was inconclusive [inhibitor, single point].

With `Cc1cn([C@H]2C[C@H](O)[C@@H](COS(=O)(=O)O)O2)c(=O)[nH]c1=O` as the compound, how does the Potency read?
The Potency was active: 1.64 µM.

Which Potency does the source give for `Cn1ncc(Br)c1C(=O)OCC(=O)Nc1nc(-c2ccccc2)cs1` here?
The Potency was inconclusive [inhibitor, single point].

For `CCOc1ccccc1CNC(=O)CCCn1c(=O)c2cccn2c2ccc(F)cc21`, which Potency is on record?
The Potency was active: 11.6 µM.

For `Cc1cnc(NC(=O)c2ccc3c(c2)C(=O)N(Cc2cccnc2)C3=O)s1`, which Potency is on record?
Its Potency is “inactive”.

With `NC(=Nc1ccc(N)cc1)C(N)=Nc1ccc(N)cc1` as the compound, how does the Potency read?
The Potency was “inactive”.

Which Potency does the source give for `CCOC(=O)COC(=O)c1ccc(Oc2cc(C)nc(SC)n2)cc1` here?
Its Potency is “inactive”.

Which Potency does the source give for `Cc1ccc(S(=O)(=O)N(C)c2ccc(C(=O)Nc3cccnc3)cc2)cc1` here?
Its Potency is “inactive”.

For `CCc1c(C)sc(NC(=S)N2CC(C)OC(C)C2)c1C(=O)OC` (configuration not stated), which Potency is on record?
Its Potency is inconclusive [inhibitor, single point].

For `COc1ccc(NC(=O)CN(C)S(=O)(=O)c2ccc3nc(C)sc3c2)cc1Cl`, which Potency is on record?
The Potency was active: 8.2 µM.

With `CC(C)(C)c1ccc(C(=O)N2CCCC2c2cccs2)cc1` (configuration not stated) as the compound, how does the Potency read?
The Potency was inconclusive [inhibitor, single point].

Which Potency does the source give for `Cn1c(C(=O)NCc2ccccc2F)cc2cc(S(=O)(=O)N3CCCCC3)ccc21` here?
Its Potency is inconclusive [inhibitor, single point].

Which Potency does the source give for `Cc1ccc(NC(=O)CSc2nc3ccccc3c(=O)[nH]2)cc1[N+](=O)[O-]` here?
Its Potency is inconclusive [inhibitor, single point].

For `Cc1ccc(S(=O)(=O)Nc2ncnc3ccccc23)cc1`, which Potency is on record?
Its Potency is inconclusive [inhibitor, single point].

With `Cn1c(Oc2cccc(Cl)c2)nc2c1c(=O)n(Cc1ccccc1Cl)c(=O)n2C` as the compound, how does the Potency read?
The Potency was “inactive”.

Which Potency does the source give for `COc1cccc(/C=N/NC(=O)c2ccc([N+](=O)[O-])cc2Cl)c1O` here?
Its Potency is active: 4.61 µM.

With `Cc1cc(C)nc(SC2CCCCC2NS(=O)(=O)c2ccccc2)n1` (configuration not stated) as the compound, how does the Potency read?
Its Potency is inconclusive [inhibitor, partial curve, poor fit].

Which Potency does the source give for `CC(C)C[C@H]1CN=C(N(C)C)N1CC1CCCCCC1` here?
The Potency was active: 20.6 µM.

Which Potency does the source give for `O=C(COc1coc(CN2CCCc3ccccc32)cc1=O)Nc1ccc([N+](=O)[O-])cc1` here?
The Potency was inconclusive [inhibitor, single point].

With `Cn1ccnc1C(O)c1cccc(OCc2ccccc2)c1` (configuration not stated) as the compound, how does the Potency read?
Its Potency is “inactive”.

Which Potency does the source give for `CCC(=O)N1CCc2cc(Br)cc(S(=O)(=O)CCC(=O)NCc3ccc(C)cc3)c21` here?
Its Potency is “inactive”.

Which Potency does the source give for `CCCNC(=O)COC(=O)c1ccccc1C(=O)c1ccc(Cl)c([N+](=O)[O-])c1` here?
The Potency was active: 10.3 µM.

Which Potency does the source give for `COc1cc(C(=O)OCC(=O)NC23CC4CC(CC(C4)C2)C3)cc(OC)c1OC` here?
Its Potency is active: 18.4 µM.

With `OCC1(CCOc2ccccc2)CCN(Cc2ccccc2OC(F)F)CC1` as the compound, how does the Potency read?
Its Potency is inconclusive [inhibitor, single point].

Which Potency does the source give for `O=C(NCCn1ccc2ccccc21)C1CCCCC1` here?
The Potency was inconclusive [inhibitor, single point].

Which Potency does the source give for `CCOc1ccccc1-n1nnnc1SCc1nc2ccccc2s1` here?
Its Potency is inconclusive [inhibitor, single point].

Which Potency does the source give for `O=C(Nc1nnc(Cc2ccc(Cl)cc2)s1)c1cccs1` here?
Its Potency is “inactive”.

Which Potency does the source give for `COc1ccc(CNC(=O)C(=O)Nc2ccccc2OC)cc1` here?
Its Potency is “inactive”.

Which Potency does the source give for `N#C/C(=C\c1ccccc1[N+](=O)[O-])c1nc(C2CC2)cs1` here?
The Potency was inconclusive [inhibitor, single point].
